Here are results for 18 molecules from the supplement of paper PMC10369915.

This is one part of the list. No stated cut-off is given here; in the data, active = 3.2 or more and inactive = the rest. Only a few entries rise above the background.
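Further: displayed peptides selected on beads carrying the immobilized SH2 domain, with library peptides lacking any tyrosine serving as negative controls.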

The target of one test is SHP2 C-SH2 domain E139D. In words: enrichment score (SH2-bound / input frequency) (ratio); bacterial display of known human phosphotyrosine sites (pTyr-Var adds point mutants) read by sequencing; higher = stronger binding; tyrosines were phosphorylated by kinases first. The following applies: peptide library: pTyr-Var.
For QCTSAHPLQPE [NANS_Y188_Y188H], the enrichment score was inactive: 0.76.
Same read-out and setting: for LPEHPYHSRPR [NDUFA8_Y142_N140H] the value was inactive: 0.789.
As to YQKDVYNIPPS [NEDD9_Y177_D178N], the enrichment score is inactive: 0.672.
Regarding KLRMEYLSLMH [NCKIPSD_Y660], the enrichment score was inactive: 2.67.
With SSMIDYNLLEK [MYOC_Y479_P481L], the enrichment score is inactive: 0.873.
FLKDVYVDSKD [NDUFAF4_Y69]: the enrichment score is inactive: 0.974.
For ILGRTYFVNHE [NEDD4_Y627_YF], the enrichment score is inactive: 1.57.
As for RSFLSYFTSHV [NEFL_Y442_P440L_YF], the enrichment score is inactive: 2.84.
As for SFLSYYTSHVQ [NEFL_Y443_P440L], the enrichment score was active: 3.29.
For KILAKYLLETS [NAMPT_Y175], the enrichment score was inactive: 0.873.
As to AAAAVYTFLPD [MYORG_Y36_M35V], the enrichment score is inactive: 0.988.
For RAVLLYEYVGK [NATD1_Y45], the enrichment score is inactive: 2.41.
For the molecule PATINYPFEKG [NDUFS8_Y84], the enrichment score is inactive: 0.663.
Turning to RHPLEYLRQFP [NARS2_Y138_YF], the enrichment score is inactive: 1.58.
As to PADQAYSWYQH [NDST1_Y711_R709Q], the enrichment score was inactive: 0.591.
As for NKVKFYIPFMN [NCR1_Y84_D87Y_YF], the enrichment score was active: 4.39.
Consider PADRAYSWFQH [NDST1_Y711_YF], for which the enrichment score is inactive: 0.871.
For RAYSWYQHQRA [NDST1_Y714], the enrichment score was inactive: 1.72.

The target in a further test is SHP2 C-SH2 domain wild-type. Described as above. The following applies: peptide library: pTyr-Var.
Consider QCTSAHPLQPE [NANS_Y188_Y188H], for which the enrichment score was inactive: 1.08.
Take LPEHPYHSRPR [NDUFA8_Y142_N140H]: the enrichment score was inactive: 0.829.
As for YQKDVYNIPPS [NEDD9_Y177_D178N], the enrichment score is inactive: 0.467.
Consider KLRMEYLSLMH [NCKIPSD_Y660], for which the enrichment score is inactive: 2.91.
For SSMIDYNLLEK [MYOC_Y479_P481L], the enrichment score was inactive: 0.919.
Take FLKDVYVDSKD [NDUFAF4_Y69]: the enrichment score is inactive: 0.906.
The same measure, in the same setting: the value for ILGRTYFVNHE [NEDD4_Y627_YF] was inactive: 1.35.
The same measure, in the same setting: for RSFLSYFTSHV [NEFL_Y442_P440L_YF] the value was inactive: 1.91; for SFLSYYTSHVQ [NEFL_Y443_P440L], active: 3.34; for KILAKYLLETS [NAMPT_Y175], inactive: 0.818.
In the case of AAAAVYTFLPD [MYORG_Y36_M35V], the enrichment score is inactive: 1.15.
As to RAVLLYEYVGK [NATD1_Y45], the enrichment score was inactive: 2.14.
On to PATINYPFEKG [NDUFS8_Y84], for which the enrichment score was inactive: 0.639.
With RHPLEYLRQFP [NARS2_Y138_YF], the enrichment score is inactive: 1.4.
Still for that read-out and setting: for PADQAYSWYQH [NDST1_Y711_R709Q] the value was inactive: 0.712.
On to NKVKFYIPFMN [NCR1_Y84_D87Y_YF], for which the enrichment score was active: 3.59.
PADRAYSWFQH [NDST1_Y711_YF]: the enrichment score is inactive: 0.701.
Take RAYSWYQHQRA [NDST1_Y714]: the enrichment score is inactive: 1.99.

The next test concerns the target SHP2 N-SH2 domain L43F. The description is as above. The following applies: peptide library: pTyr-Var.
Consider QCTSAHPLQPE [NANS_Y188_Y188H], for which the enrichment score was inactive: 0.933.
Take LPEHPYHSRPR [NDUFA8_Y142_N140H]: the enrichment score is inactive: 1.2.
Still for that read-out and setting: for YQKDVYNIPPS [NEDD9_Y177_D178N] the value was inactive: 0.511; for KLRMEYLSLMH [NCKIPSD_Y660], active: 3.98.
Take SSMIDYNLLEK [MYOC_Y479_P481L]: the enrichment score was inactive: 0.927.
Take FLKDVYVDSKD [NDUFAF4_Y69]: the enrichment score was inactive: 0.821.
For the molecule ILGRTYFVNHE [NEDD4_Y627_YF], the enrichment score is inactive: 1.28.
Consider RSFLSYFTSHV [NEFL_Y442_P440L_YF], for which the enrichment score was inactive: 2.12.
As to SFLSYYTSHVQ [NEFL_Y443_P440L], the enrichment score is active: 4.49.
As to KILAKYLLETS [NAMPT_Y175], the enrichment score is inactive: 1.04.
As for AAAAVYTFLPD [MYORG_Y36_M35V], the enrichment score was inactive: 1.
Take RAVLLYEYVGK [NATD1_Y45]: the enrichment score is inactive: 2.06.
With PATINYPFEKG [NDUFS8_Y84], the enrichment score is inactive: 0.792.
RHPLEYLRQFP [NARS2_Y138_YF]: the enrichment score was inactive: 1.36.
Turning to PADQAYSWYQH [NDST1_Y711_R709Q], the enrichment score was inactive: 0.528.
Take NKVKFYIPFMN [NCR1_Y84_D87Y_YF]: the enrichment score is active: 3.92.
As for PADRAYSWFQH [NDST1_Y711_YF], the enrichment score is inactive: 0.582.
For RAYSWYQHQRA [NDST1_Y714], the enrichment score was inactive: 1.8.

Another test deals with SHP2 N-SH2 domain T42A. The test is described as above. The following applies: peptide library: pTyr-Var.
With QCTSAHPLQPE [NANS_Y188_Y188H], the enrichment score is inactive: 0.745.
LPEHPYHSRPR [NDUFA8_Y142_N140H]: the enrichment score is inactive: 0.748.
Still for that read-out and setting: for YQKDVYNIPPS [NEDD9_Y177_D178N] the value was inactive: 0.488.
In the case of KLRMEYLSLMH [NCKIPSD_Y660], the enrichment score is active: 5.1.
Take SSMIDYNLLEK [MYOC_Y479_P481L]: the enrichment score was inactive: 0.759.
On to FLKDVYVDSKD [NDUFAF4_Y69], for which the enrichment score is inactive: 0.75.
For the molecule ILGRTYFVNHE [NEDD4_Y627_YF], the enrichment score was inactive: 1.48.
As for RSFLSYFTSHV [NEFL_Y442_P440L_YF], the enrichment score was inactive: 2.32.
Still for that read-out and setting: for SFLSYYTSHVQ [NEFL_Y443_P440L] the value was inactive: 2.88.
In the case of KILAKYLLETS [NAMPT_Y175], the enrichment score is inactive: 0.863.
On the same count and under the same terms, the value for AAAAVYTFLPD [MYORG_Y36_M35V] was inactive: 0.996; that for RAVLLYEYVGK [NATD1_Y45] was inactive: 2.29; that for PATINYPFEKG [NDUFS8_Y84] was inactive: 0.575.
For RHPLEYLRQFP [NARS2_Y138_YF], the enrichment score was inactive: 1.4.
As for PADQAYSWYQH [NDST1_Y711_R709Q], the enrichment score is inactive: 0.575.
Consider NKVKFYIPFMN [NCR1_Y84_D87Y_YF], for which the enrichment score was active: 3.27.
Turning to PADRAYSWFQH [NDST1_Y711_YF], the enrichment score is inactive: 0.706.
Regarding RAYSWYQHQRA [NDST1_Y714], the enrichment score is inactive: 1.77.

The target of the next test is SHP2 N-SH2 domain T52S. The test is described as above. The following applies: peptide library: pTyr-Var.
With QCTSAHPLQPE [NANS_Y188_Y188H], the enrichment score is inactive: 0.627.
As to LPEHPYHSRPR [NDUFA8_Y142_N140H], the enrichment score is inactive: 0.945.
The same measure, in the same setting: for YQKDVYNIPPS [NEDD9_Y177_D178N] the value was inactive: 0.652.
KLRMEYLSLMH [NCKIPSD_Y660]: the enrichment score was active: 4.66.
Consider SSMIDYNLLEK [MYOC_Y479_P481L], for which the enrichment score was inactive: 0.776.
Consider FLKDVYVDSKD [NDUFAF4_Y69], for which the enrichment score is inactive: 0.942.
As to ILGRTYFVNHE [NEDD4_Y627_YF], the enrichment score is inactive: 1.3.
On to RSFLSYFTSHV [NEFL_Y442_P440L_YF], for which the enrichment score is inactive: 2.22.
As for SFLSYYTSHVQ [NEFL_Y443_P440L], the enrichment score was active: 4.59.
Consider KILAKYLLETS [NAMPT_Y175], for which the enrichment score was inactive: 0.944.
On the same count and under the same terms, the value for AAAAVYTFLPD [MYORG_Y36_M35V] was inactive: 0.793; that for RAVLLYEYVGK [NATD1_Y45] was inactive: 2.02.
Take PATINYPFEKG [NDUFS8_Y84]: the enrichment score is inactive: 1.13.
Consider RHPLEYLRQFP [NARS2_Y138_YF], for which the enrichment score is inactive: 1.36.
On the same count and under the same terms, the value for PADQAYSWYQH [NDST1_Y711_R709Q] was inactive: 0.852; that for NKVKFYIPFMN [NCR1_Y84_D87Y_YF] was active: 3.49.
Take PADRAYSWFQH [NDST1_Y711_YF]: the enrichment score was inactive: 0.676.
Still for that read-out and setting: the value for RAYSWYQHQRA [NDST1_Y714] was inactive: 1.92.

The target in a further test is SHP2 N-SH2 domain wild-type. The test is described as above. Particulars: peptide library: pTyr-Var.
For QCTSAHPLQPE [NANS_Y188_Y188H], the enrichment score was inactive: 1.81.
Same read-out and setting: the value for LPEHPYHSRPR [NDUFA8_Y142_N140H] was inactive: 0.739; that for YQKDVYNIPPS [NEDD9_Y177_D178N] was inactive: 0.73.
Still for that read-out and setting: the value for KLRMEYLSLMH [NCKIPSD_Y660] was inactive: 2.77; that for SSMIDYNLLEK [MYOC_Y479_P481L] was inactive: 0.988; that for FLKDVYVDSKD [NDUFAF4_Y69] was inactive: 1.03.
Still for that read-out and setting: the value for ILGRTYFVNHE [NEDD4_Y627_YF] was inactive: 1.59; that for RSFLSYFTSHV [NEFL_Y442_P440L_YF] was inactive: 1.76.
As to SFLSYYTSHVQ [NEFL_Y443_P440L], the enrichment score is active: 3.98.
With KILAKYLLETS [NAMPT_Y175], the enrichment score is inactive: 0.747.
Same read-out and setting: for AAAAVYTFLPD [MYORG_Y36_M35V] the value was inactive: 1.04; for RAVLLYEYVGK [NATD1_Y45], inactive: 2; for PATINYPFEKG [NDUFS8_Y84], inactive: 0.736.
As for RHPLEYLRQFP [NARS2_Y138_YF], the enrichment score was inactive: 1.15.
As for PADQAYSWYQH [NDST1_Y711_R709Q], the enrichment score is inactive: 0.906.
On the same count and under the same terms, for NKVKFYIPFMN [NCR1_Y84_D87Y_YF] the value was active: 3.41; for PADRAYSWFQH [NDST1_Y711_YF], inactive: 0.711; for RAYSWYQHQRA [NDST1_Y714], inactive: 1.85.
